# According to ChEMBL document CHEMBL4888484, “Replenishing the malaria drug discovery pipeline: Screening and hit evaluation of the MMV Hit Generation Library 1 (HGL1) against asexual blood stage Plasmodium falciparum ,using a nano luciferase reporter read-out” (2022):
# About 540 (0.36%) of roughly 150,000 compounds showed an effect of 50% or more. Some of the results follow.
# System: Plasmodium falciparum
# Test: Primary screen in NF54 nanoGlo assay, in single point, at 2uM, 72h; a lower Z score goes with more inhibition
# Assay type: functional, Erythrocyte
# Details: timepoint 72 hour
SMILES,% Inhibition [%],Z score
CCCn1c(=O)sc2cc(NC(=O)c3ccc(OC)cc3)ccc21,13,-2.13
CC(C(=O)NC1C2CCC(C2)C1CO)c1ccccc1 (centres undefined),-1,0.11
Cn1cnnc1N1CCN(C(=O)NCCc2nccn2Cc2ccccc2)CC1,0,0.03
CNC(=O)C[C@H]1CCN(c2nc(C)nc(C)c2C)C1,-2,0.33
COc1ccc(CNC(=O)[C@H]2CC(=O)N(c3ccc(OCC(=O)Nc4ccc(C)cc4)cc3)C2)cc1,-6,0.75
O=c1c2ccccc2nnn1C[C@H]1CC[C@H](C(=O)N2CCC(Cc3ccccc3)CC2)CC1,-11,1.56
Cn1c(C(=O)N2CCC[C@@]23CCOC3=O)cc2cc(C(F)(F)F)ccc21,-5,0.76
COCCC(=O)N1CCC[C@H](n2c(=O)n(CC3CC3)c3cccnc32)C1,-13,1.76
COc1cc(OC)c(CN2CCN(C)C[C@@H]2C(C)C)c(C(=O)O)c1,3,-0.35
O=S(=O)(c1cnccc1Nc1cccc(C(F)(F)F)c1)N1CCOCC1,7,-1.08
CCc1ncc(C(=O)N(C)Cc2ccc(-n3cccn3)cc2)cn1,-16,1.71
CNC(=NCc1ccnc(OC2CCC2)c1)NC,-16,1.37
COCCN(C)C(=O)C[C@]1(c2ccc(-c3ccccc3)cc2)CC(=O)N(C2CC2)C1=O,1,-0.15
O=S(=O)(c1ccc(F)c(F)c1)c1cnc2c(F)cccc2c1-c1ccc(Cl)cc1,-9,1.04
NC1=NC(=Nc2cccc(S(=O)(=O)N3CCCCC3)c2)c2ccccc21,-8,1.06
Cc1cc(C)c(C(=O)N2CCN(C)[C@]3(CCC(=O)N(CC4CC4)CC3)C2)cn1,-11,1.61
COc1ccc(NC(=O)N[C@H]2CCCS(=O)(=O)C2)cc1,-11,1.6
O=c1[nH]c(N2CCC(CO)CC2)nc2c1Cc1ccccc1OC2,3,-0.58
CCS(=O)(=O)N1CCC(c2nc(C)ccc2C(=O)NCc2ccc(C)cc2)CC1,-13,1.62
O=C(N1Cc2cccnc2C1)N(c1ccccc1)c1ccccc1,-3,0.66
Cc1nc(CNC(=O)CN2CCOCC2)oc1-c1ccc(Cl)cc1,-9,1.39
Cc1cnc(C)c(-c2cc(O)c3c(c2)CN(Cc2c[nH]cn2)CCO3)n1,-3,0.27
